# Laboratory results: the antibiotic and cytotoxicity screens of Wong et al. (2023)
# The other results are listed elsewhere or left out.
# Tests used:
# [1] = system: HSkMC (human skeletal muscle cells); assay: cytotoxicity call (relative viability < 0.9); details: 10 µM
# [2] = system: HepG2; assay: cytotoxicity call (relative viability < 0.9); details: 10 µM
# [3] = system: S. aureus RN4220; assay: growth inhibition call (relative growth <= 0.2); details: 50 µM
Compound,cytotoxicity call [1],cytotoxicity call [2],growth inhibition call [3]
CO[C@H](C(=O)N(C)C[C@@H]1OCc2ccccc2-c2c(n(C)c3ccccc23)C(=O)N([C@@H](C)CO)C[C@H]1C)c1ccccc1,inactive,inactive,inactive
CC(C)NC(=O)N(C)C[C@@H]1OCCCC[C@H](C)Oc2ccc(NC(=O)C3CCCCC3)cc2C(=O)N([C@H](C)CO)C[C@H]1C,inactive,inactive,inactive
Cc1cc(NC(=O)CCCC(=O)O)n(C)n1,inactive,inactive,inactive
COCCNC(=O)C[C@H]1CC[C@H]2[C@@H](COC[C@@H](O)CN2S(=O)(=O)c2ccccc2F)O1,inactive,inactive,inactive
COc1ccc(NC(=O)N(C)C[C@@H]2OCCCC[C@H](C)Oc3ccc(NS(=O)(=O)c4ccc(OC)cc4)cc3C(=O)N([C@H](C)CO)C[C@H]2C)cc1,inactive,inactive,inactive
C[C@@H]1CN([C@@H](C)CO)C(=O)c2cc(NS(=O)(=O)c3cccs3)ccc2O[C@@H](C)CCCCO[C@H]1CN(C)C(=O)Cc1ccccc1,inactive,inactive,inactive
C[C@H]1CN([C@@H](C)CO)C(=O)c2cc(NS(=O)(=O)c3ccc(F)cc3)ccc2O[C@H]1CN(C)S(=O)(=O)c1ccc(F)cc1,inactive,inactive,inactive
CC(C)NC(=O)N(C)C[C@@H]1Oc2ccc(NC(=O)C3CCCCC3)cc2C(=O)N([C@H](C)CO)C[C@@H]1C,inactive,inactive,inactive
CCCNC(=O)N(C)C[C@@H]1Oc2cc(C#Cc3ccccn3)ccc2S(=O)(=O)N([C@H](C)CO)C[C@H]1C,inactive,inactive,inactive
C[C@H]1CCCCO[C@@H](CN(C)Cc2ccccc2)[C@@H](C)CN([C@@H](C)CO)C(=O)c2cc(NS(=O)(=O)c3ccccc3)ccc2O1,inactive,inactive,inactive
O=C(O)CN1Cc2ccccc2C1=O,inactive,inactive,inactive
Cc1cc(O)n(CCCO)c(=O)c1C#N,inactive,inactive,inactive
CCCNC(=O)N1C[C@]2(CCN(CC2)S(=O)(=O)c2cccc(c2)OC)c2c(n(c3cc(ccc23)OC)C)[C@@H]1CO,inactive,inactive,inactive
C[C@@H]1CN([C@H](C)CO)C(=O)Cc2cc(NS(=O)(=O)c3cn(C)cn3)ccc2O[C@@H]1CN(C)Cc1ccc(C(=O)Nc2ccccc2N)cc1,inactive,inactive,inactive
C[C@H](CO)N1C[C@H](C)[C@H](CN(C)C(=O)Cc2ccccc2)OCCCC[C@H](C)Oc2ccc(NC(=O)Cc3ccccc3)cc2C1=O,inactive,inactive,inactive
C[C@@H]1CN([C@H](C)CO)C(=O)c2cccc(NC(=O)c3nc4ccccc4s3)c2O[C@@H]1CN(C)S(C)(=O)=O,inactive,inactive,inactive

Compound,cytotoxicity call [1],cytotoxicity call [2],growth inhibition call [3]
C[C@H](CO)N1C[C@H](C)[C@H](CN(C)Cc2ccc(-c3ccccc3)cc2)Oc2c(NC(=O)c3nc4ccccc4s3)cccc2C1=O,inactive,inactive,inactive
C[C@@H]1CN([C@@H](C)CO)C(=O)c2cc(NC(=O)Cn3cnnn3)ccc2O[C@H]1CN(C)S(=O)(=O)c1cccs1,inactive,inactive,inactive
NC(=O)N1C(=O)[C@H]2[C@H](C1=O)[C@H]1C=C(CCCO)[C@@H]2[C@H](c2ccc(CN3CCCC3)cc2)N1Cc1sc2ccccc2c1Cl,inactive,inactive,inactive
C[C@H](CO)N1C[C@H](C)[C@@H](CN(C)Cc2ccc(C(=O)O)cc2)Oc2ccc(NC(=O)Nc3cccc4ccccc34)cc2CC1=O,inactive,inactive,inactive
Cc1ccc(S(=O)(=O)N(C)C[C@H]2OCCCC[C@H](C)Oc3ccc(NC(=O)Nc4ccc5c(c4)OCO5)cc3C(=O)N([C@H](C)CO)C[C@@H]2C)cc1,inactive,inactive,inactive
C[C@H](O)[C@H](O)[C@@H](O)[C@@H](O)/C=N/NC(=O)CCCCCC(=O)NO,inactive,inactive,inactive
C[C@@H]1CCCCO[C@H](CN(C)Cc2ccc(Cl)c(Cl)c2)[C@@H](C)CN([C@H](C)CO)C(=O)c2cc(NS(=O)(=O)c3cccs3)ccc2O1,inactive,active,inactive
O=C(C[C@@H]1C[C@H]2c3cc(NS(=O)(=O)c4ccc(F)cc4)ccc3O[C@H]2[C@@H](CO)O1)N1CCCCC1,inactive,inactive,inactive
C[C@@H]1CN([C@H](C)CO)C(=O)c2cc(NC(=O)Nc3ccc4c(c3)OCO4)ccc2O[C@@H](C)CCCCO[C@@H]1CN(C)Cc1ccc(C(=O)O)cc1,inactive,inactive,inactive
Cc1noc(C)c1NC(=O)Nc1ccc2c(c1)C(=O)N([C@H](C)CO)C[C@H](C)[C@H](CN(C)S(=O)(=O)c1ccc(Cl)cc1)OCCCC[C@@H](C)O2,inactive,inactive,inactive
COc1ccc(CN(C)C[C@H]2Oc3c(NC(=O)c4cc(C)nn4C)cccc3C(=O)N([C@@H](C)CO)C[C@@H]2C)cc1,inactive,inactive,inactive
C[C@@H]1CN([C@H](C)CO)C(=O)c2cccc(NC(=O)c3nc4ccccc4s3)c2O[C@@H]1CN(C)CC1CCCCC1,inactive,inactive,inactive
COCC(=O)N[C@H]1C=C[C@@H](CC(=O)N2CCCCC2)O[C@@H]1CO,inactive,inactive,inactive
CN(C)CC(=O)N1CC2(C1)[C@@H](c1ccccc1)[C@H](CO)N2S(C)(=O)=O,inactive,inactive,inactive
C[C@H](CO)N1C[C@H](C)[C@@H](CN(C)Cc2ccccc2)OCCCC[C@H](C)Oc2ccc(NS(=O)(=O)c3ccccc3)cc2C1=O,inactive,inactive,inactive
